PMC4336329 (PLoS ONE, 2015)
Screen size: about 310,000 compounds; about 14,000 (4.5%) showed an effect of 50% or more. Effects have a minus sign here. This is one part of the list.

Biological target: human ether-à-go-go-related gene (hERG) potassium channel (human, UniProt Q12809)
Experiment: primary screen, population patch clamp on CHO cells stably expressing hERG
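Also: peak tail current of the secondary pulse compared with the same well before compound.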

human ether-à-go-go-related gene (hERG) potassium channel, sequence (Q12809 whole entry, looked up): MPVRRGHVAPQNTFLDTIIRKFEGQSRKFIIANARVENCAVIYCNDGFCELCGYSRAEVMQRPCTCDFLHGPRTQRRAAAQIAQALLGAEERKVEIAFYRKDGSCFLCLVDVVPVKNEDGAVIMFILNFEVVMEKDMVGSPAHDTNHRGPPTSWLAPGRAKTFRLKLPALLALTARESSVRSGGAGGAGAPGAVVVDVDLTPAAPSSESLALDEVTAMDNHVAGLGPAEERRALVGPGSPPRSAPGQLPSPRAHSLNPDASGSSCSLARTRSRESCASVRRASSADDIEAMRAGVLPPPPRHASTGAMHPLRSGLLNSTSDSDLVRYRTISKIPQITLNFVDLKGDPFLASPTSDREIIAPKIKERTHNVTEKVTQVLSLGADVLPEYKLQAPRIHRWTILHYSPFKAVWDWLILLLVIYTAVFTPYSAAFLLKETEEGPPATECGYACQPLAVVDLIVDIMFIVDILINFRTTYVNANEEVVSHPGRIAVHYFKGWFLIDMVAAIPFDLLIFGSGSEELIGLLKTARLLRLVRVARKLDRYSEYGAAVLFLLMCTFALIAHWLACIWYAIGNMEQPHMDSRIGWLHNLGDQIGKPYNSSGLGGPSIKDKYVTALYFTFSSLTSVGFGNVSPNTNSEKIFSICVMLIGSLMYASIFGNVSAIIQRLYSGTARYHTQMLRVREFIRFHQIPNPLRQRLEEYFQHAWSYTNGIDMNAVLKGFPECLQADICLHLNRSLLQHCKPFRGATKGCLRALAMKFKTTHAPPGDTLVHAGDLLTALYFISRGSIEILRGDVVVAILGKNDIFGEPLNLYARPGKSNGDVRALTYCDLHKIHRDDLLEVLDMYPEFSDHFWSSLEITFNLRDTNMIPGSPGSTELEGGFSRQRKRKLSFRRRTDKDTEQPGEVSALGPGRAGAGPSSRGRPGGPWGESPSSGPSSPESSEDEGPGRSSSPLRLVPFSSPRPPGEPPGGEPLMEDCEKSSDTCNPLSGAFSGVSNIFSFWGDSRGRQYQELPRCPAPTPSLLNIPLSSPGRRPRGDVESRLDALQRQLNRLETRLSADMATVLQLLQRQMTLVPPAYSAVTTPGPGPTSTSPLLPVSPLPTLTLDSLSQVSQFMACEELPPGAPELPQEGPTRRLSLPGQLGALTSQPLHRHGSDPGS

In order of falling “hERG current change (%, negative = inhibition) at 10uM” value:
1. COc1ccc(-c2ccnc3cc(C(=O)O)nn23)cc1  31.5%
2. O=C(Cc1c(Cl)cccc1Cl)NC1CC1  28.2%
3. Cc1ccc2oc(=O)c(/C=C(\O)CC(C)C)nc2c1  21.8%
4. Cc1cccnc1NCc1ccc(O)c2ncccc12  19.5%
5. CCC(NC(C)C)C(O)c1ccc(O)c(O)c1.CS(=O)(=O)O (stereo not shown)  19%
6. Cc1ccc(CN(C)C(=O)c2ccc(NS(=O)(=O)c3ccc4[nH]c(=O)[nH]c4c3)cc2)cc1  18.3%
7. O=[N+]([O-])c1cc(Cl)c(Cl)cc1Cl  17.9%
8. O=C1CCCCC/C1=N/Nc1ccc(OCc2ccccc2)cc1  17.3%
9. COc1cccc(/C=C/C(=O)Oc2ccc(C(=O)c3ccc(F)cc3)cc2)c1  15%
10. Cc1ccc(NC(=S)NC2CCCC2)c(C)c1  13.6%
11. CC(C)N1CCC(NC(=O)NC2CCCCC2)CC1  13.1%
12. COc1ccc(S(=O)(=O)NCc2ccccn2)cc1Br  12.5%
13. CCOc1ccc(NC(=S)N2CCN(S(C)(=O)=O)CC2)cc1  11.3%
14. Clc1ccccc1CN1CCN(c2ncccn2)CC1  10.5%
15. Cc1cc(C)cc(C(=O)NC(CC(N)=O)c2ccc(N3CCC(N4CCCCC4)CC3)c([N+](=O)[O-])c2)c1 (stereo not shown)  9.54%
16. O=C(O)c1cc(Cl)c2c(c1)OCO2  9.3%
17. O=C(Oc1cccc(/C=N/Nc2nc(Nc3ccccc3)nc(N3CCOCC3)n2)c1)c1ccco1  9.05%
18. COc1cc(-c2nc3n(n2)C(c2ccncc2)C(C(N)=O)=C(C)N3)cc(OC)c1OC (stereo not shown)  8.74%
19. O=C(Nc1cccc2ccccc12)c1ccccc1Cl  6.68%
20. O=C(CSc1nc2c(c(C(F)(F)F)n1)CCc1ccccc1-2)NCc1ccccc1  6.56%
21. Cc1cccc(NC(=O)c2cc([N+](=O)[O-])ccc2Cl)c1O  6.16%
22. CCOc1ccc(S(=O)(=O)N2CCOCC2)cc1NC(=O)CN1C(=O)NC2(CCCC2)C1=O  5.87%
23. COc1ccc(-n2c(=O)cc(N3CC(C)OC(C)C3)[nH]c2=O)cc1 (stereo not shown)  5.84%
24. O=C(CSc1ccc(-c2cccnc2)nn1)Nc1ccccc1C(F)(F)F  5.77%
25. Cc1ccccc1C(=O)N/N=C/c1ccccn1  5.6%
26. COc1cc(/C=N/NC(=O)CC#N)ccc1Oc1nc(Cl)ncc1F  4.89%
27. O=C(c1ccc2c(c1)N(Cc1ccc(F)cc1)C(=O)CS2)N1CCOCC1  4.55%
28. Cc1cccc(OCCn2cnc(Cl)c2Cl)c1  4.18%
29. CNc1nc(C(=O)O)nc(N2CCOCC2)n1  3.83%
30. CCOC(=O)c1cnc(SCC(=O)Nc2ccc3c(c2)OCCO3)nc1N  3.4%
31. CCN(CCO)C(=O)c1ccc2nc(Cc3cccc(Cl)c3)oc2c1  2.88%
32. CC(C)Cc1nnc(NC(=O)c2ccc3c(c2)NC(=O)C(C)S3)s1 (stereo not shown)  1.94%
33. Cc1ccnc(NC(=O)C2CCCN(S(=O)(=O)c3ccc4[nH]c(=O)ccc4c3)C2)c1 (stereo not shown)  1.84%
34. CN(C)C(=O)c1cc(C(=O)c2ccccc2C(F)(F)F)c[nH]1  1.09%
35. Cc1cccc(NC(=S)NC2CCCC2)c1  0.919%
36. O=C(CN1CCSCC1)N/N=C/c1ccccc1F  0.735%
37. O=C(O)c1cccc(Nc2ccc3nonc3c2[N+](=O)[O-])c1  -0.901%
38. CO/N=C(/CNC(=O)c1cccc(Cl)c1)c1ccc(Cl)cc1  -0.994%
39. Cc1cccc(OC2CCN(Cc3nc(CC4CC4)no3)CC2)c1  -1.64%
40. Cc1sc2ncn(CC(=O)N(C)C3CCCCC3)c(=O)c2c1C  -1.96%
41. C/C=C/c1ccc(OCCn2cncn2)c(OC)c1  -3.39%
42. O=C1NCCCc2c1oc1cc(Br)c(O)c(Br)c21  -6.96%
43. CCCOc1ccc(/C(O)=C2/C(=O)C(=O)N(CCCn3ccnc3)C2c2cccnc2)cc1 (stereo not shown)  -8.08%
44. CCOC(=O)Cc1[nH]nc2c1C(C1C=CCCC1)C(C#N)=C(N)O2 (stereo not shown)  -8.29%
45. CCN(c1ccccc1)S(=O)(=O)c1cc(C(=O)Oc2ccc3c(C)cc(=O)oc3c2)ccc1C  -9.09%
46. COC(=O)C(CCSC)NC(=O)c1cc2c(n(-c3ccccc3)c1=O)CC(C)(C)CC2=O (stereo not shown)  -11%
47. COCCn1c(N)c(N(Cc2ccccc2)C(=O)Cc2c(Cl)cccc2Cl)c(=O)[nH]c1=O  -14%
48. CCCOCCOC(=O)C1=C(C)NC(=O)NC1c1cc(Cl)c(O)c(OC)c1 (stereo not shown)  -15.8%
49. CN(C)c1nc(NS(=O)(=O)c2ccc(Cl)cc2)nc(N(C)C)n1  -17.5%
50. Brc1ccc(CSc2nnc3ccccn23)cc1  -18.7%
51. N#Cc1ccccc1N1CCN(C(=O)c2ccc(NC(=O)c3ccc(Br)o3)cc2)CC1  -18.9%
52. COc1ccc(CCNC(=O)c2ccc3c(c2)N(Cc2ccc(F)cc2)CCS3)cc1OC  -20.9%
53. Fc1ccccc1CSc1ncn[nH]1  -22.2%
54. CN(Cc1cccc(F)c1)C(=O)c1cc(S(=O)(=O)N2CCOCC2)ccc1N1CCCC1  -24.5%
55. Cc1ccc(N(CC(=O)NCc2ccc(F)cc2)S(=O)(=O)c2c(C)nn(C)c2C)cc1  -24.5%
56. COc1ccccc1CN(C)C(=O)c1ccccc1Sc1ccccc1C#N  -25%
57. COc1nc(Cc2ccc(Cl)cc2)nc2ccccc12  -29.2%
58. O=C(COC(=O)c1cc(S(=O)(=O)N2CCOCC2)ccc1F)Nc1ccc(Cl)cn1  -37.4%
